The list shows a part of the results.

For 32 sequences, binding signal results are on record in article PMC12820563, “FoxP3 forms a head-to-head dimer in vivo and stabilizes its multimerization on adjacent microsatellites”.

This test addresses T1, MBP-FoxP1dN (Mus musculus, UniProt P58462 326-579).
T1 sequence: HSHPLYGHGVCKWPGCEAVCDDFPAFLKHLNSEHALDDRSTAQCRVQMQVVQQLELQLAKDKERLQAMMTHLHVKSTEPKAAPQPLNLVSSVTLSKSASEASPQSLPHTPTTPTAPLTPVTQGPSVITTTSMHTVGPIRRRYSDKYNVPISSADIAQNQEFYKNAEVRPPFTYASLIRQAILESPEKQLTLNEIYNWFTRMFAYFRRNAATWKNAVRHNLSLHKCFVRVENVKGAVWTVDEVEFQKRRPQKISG
Kind of test: PD-seq (MBP pull-down with sequencing); 20 mM Tris-HCl pH 7.5, 100 mM NaCl, 1.5 mM MgCl2, 0.4 uM protein, 0.1 uM dsDNA library, 30 min, room temperature, amylose pull-down; high values mean tight binding. As to conditions: protein: recombinant; tags: His6-MBP; chain copies: 2; dsDNA, one strand shown. The method, boiled down: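 Binding is given as reads-per-million enrichment, pull-down over input, with replicates pooled. The bait was an N-terminus-lacking mouse FoxP3 or FoxP1 fragment with a His6-MBP tag, expressed in E. coli and used at 0.4 µM with 0.1 µM Klenow-filled degenerate double-stranded DNA library for 30 min at room temperature in Tris pH 7.5 buffer with NaCl and MgCl2. Amylose resin pull-down with three washes was followed by proteinase K release, PCR barcoding and Illumina sequencing.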
As to “GATGATTGTTCTCCCAGCTGATGAATTTTTCCTGTCGAGTAAACAAATTTTCCTAATCTTTCTGTTCAAGCGCCATCTAC”, the binding signal was 0.903 RPM ratio (pull-down/input).

Consider “GATGATTGTTCTCCCAGCTGATGAATTTATCCGCTCGAGTAAACAAATTTTCCTAATCTTTCTGTTCAAGCGCCATCTAC”, for which the binding signal was 0.989 RPM ratio (pull-down/input).

With “GATGATTGTTCTCCCAGCTGATGAATTCTGTCAGTCGAGTAAACAAATTTTCCTAATCTTTCTGTTCAAGCGCCATCTAC”, the binding signal was 0.879 RPM ratio (pull-down/input).

As to “GATGATTGTTCTCCCAGCTGATGAATTACACGCGTCGAGTAAACAAATTTTCCTAATCTTTCTGTTCAAGCGCCATCTAC”, the binding signal was 1.18 RPM ratio (pull-down/input).

Turning to “GATGATTGTTCTCCCAGCTGATGAATTCCGCTTTTCGAGTAAACAAATTTTCCTAATCTTTCTGTTCAAGCGCCATCTAC”, the binding signal is 0.9 RPM ratio (pull-down/input).

For the sequence “GATGATTGTTCTCCCAGCTGATGAATTATAAGTATCGAGTAAACAAATTTTCCTAATCTTTCTGTTCAAGCGCCATCTAC”, the binding signal was 1.19 RPM ratio (pull-down/input).

Regarding “GATGATTGTTCTCCCAGCTGATGAATTCATATTGTCGAGTAAACAAATTTTCCTAATCTTTCTGTTCAAGCGCCATCTAC”, the binding signal is 1.9 RPM ratio (pull-down/input).

For the sequence “GATGATTGTTCTCCCAGCTGATGAATTTGAACTGTCGAGTAAACAAATTTTCCTAATCTTTCTGTTCAAGCGCCATCTAC”, the binding signal is 0.807 RPM ratio (pull-down/input).

“GATGATTGTTCTCCCAGCTGATGAATTACCGATCTCGAGTAAACAAATTTTCCTAATCTTTCTGTTCAAGCGCCATCTAC”: the binding signal was 0.951 RPM ratio (pull-down/input).

For the sequence “GATGATTGTTCTCCCAGCTGATGAATTGAGCCAATCGAGTAAACAAATTTTCCTAATCTTTCTGTTCAAGCGCCATCTAC”, the binding signal was 0.937 RPM ratio (pull-down/input).

Regarding “GATGATTGTTCTCCCAGCTGATGAATTTCAAGAATCGAGTAAACAAATTTTCCTAATCTTTCTGTTCAAGCGCCATCTAC”, the binding signal was 0.984 RPM ratio (pull-down/input).

Regarding “GATGATTGTTCTCCCAGCTGATGAATTACCGAGGTCGAGTAAACAAATTTTCCTAATCTTTCTGTTCAAGCGCCATCTAC”, the binding signal is 0.885 RPM ratio (pull-down/input).

Turning to “GATGATTGTTCTCCCAGCTGATGAATTTATGACCTCGAGTAAACAAATTTTCCTAATCTTTCTGTTCAAGCGCCATCTAC”, the binding signal was 0.986 RPM ratio (pull-down/input).

Turning to “GATGATTGTTCTCCCAGCTGATGAATTTCGGATGTCGAGTAAACAAATTTTCCTAATCTTTCTGTTCAAGCGCCATCTAC”, the binding signal was 0.824 RPM ratio (pull-down/input).

For the sequence “GATGATTGTTCTCCCAGCTGATGAATTTTCCCGATCGAGTAAACAAATTTTCCTAATCTTTCTGTTCAAGCGCCATCTAC”, the binding signal is 0.852 RPM ratio (pull-down/input).

In the case of “GATGATTGTTCTCCCAGCTGATGAATTTCAACCGTCGAGTAAACAAATTTTCCTAATCTTTCTGTTCAAGCGCCATCTAC”, the binding signal is 0.768 RPM ratio (pull-down/input).

Consider “GATGATTGTTCTCCCAGCTGATGAATTTTCATGCTCGAGTAAACAAATTTTCCTAATCTTTCTGTTCAAGCGCCATCTAC”, for which the binding signal is 0.884 RPM ratio (pull-down/input).

For the sequence “GATGATTGTTCTCCCAGCTGATGAATTAATTATCTCGAGTAAACAAATTTTCCTAATCTTTCTGTTCAAGCGCCATCTAC”, the binding signal was 1.01 RPM ratio (pull-down/input).

For “GATGATTGTTCTCCCAGCTGATGAATTTAGAGGCTCGAGTAAACAAATTTTCCTAATCTTTCTGTTCAAGCGCCATCTAC”, the binding signal was 1.21 RPM ratio (pull-down/input).

Take “GATGATTGTTCTCCCAGCTGATGAATTTTCTAATTCGAGTAAACAAATTTTCCTAATCTTTCTGTTCAAGCGCCATCTAC”: the binding signal was 1.05 RPM ratio (pull-down/input).

Turning to “GATGATTGTTCTCCCAGCTGATGAATTTGCCAATTCGAGTAAACAAATTTTCCTAATCTTTCTGTTCAAGCGCCATCTAC”, the binding signal was 1.01 RPM ratio (pull-down/input).

Turning to “GATGATTGTTCTCCCAGCTGATGAATTGTACTCTTCGAGTAAACAAATTTTCCTAATCTTTCTGTTCAAGCGCCATCTAC”, the binding signal was 1.08 RPM ratio (pull-down/input).

For the sequence “GATGATTGTTCTCCCAGCTGATGAATTTTGCGTATCGAGTAAACAAATTTTCCTAATCTTTCTGTTCAAGCGCCATCTAC”, the binding signal was 1.16 RPM ratio (pull-down/input).

For the sequence “GATGATTGTTCTCCCAGCTGATGAATTCTTGCATTCGAGTAAACAAATTTTCCTAATCTTTCTGTTCAAGCGCCATCTAC”, the binding signal is 1.24 RPM ratio (pull-down/input).

As to “GATGATTGTTCTCCCAGCTGATGAATTATTGAGCTCGAGTAAACAAATTTTCCTAATCTTTCTGTTCAAGCGCCATCTAC”, the binding signal was 0.941 RPM ratio (pull-down/input).

Regarding “GATGATTGTTCTCCCAGCTGATGAATTGTAGCTTTCGAGTAAACAAATTTTCCTAATCTTTCTGTTCAAGCGCCATCTAC”, the binding signal was 1.05 RPM ratio (pull-down/input).

As for “GATGATTGTTCTCCCAGCTGATGAATTCAGATATTCGAGTAAACAAATTTTCCTAATCTTTCTGTTCAAGCGCCATCTAC”, the binding signal is 1.01 RPM ratio (pull-down/input).

Consider “GATGATTGTTCTCCCAGCTGATGAATTTTACGAGTCGAGTAAACAAATTTTCCTAATCTTTCTGTTCAAGCGCCATCTAC”, for which the binding signal was 0.847 RPM ratio (pull-down/input).

As to “GATGATTGTTCTCCCAGCTGATGAATTTGTGACATCGAGTAAACAAATTTTCCTAATCTTTCTGTTCAAGCGCCATCTAC”, the binding signal was 1.39 RPM ratio (pull-down/input).

As for “GATGATTGTTCTCCCAGCTGATGAATTTTATCGATCGAGTAAACAAATTTTCCTAATCTTTCTGTTCAAGCGCCATCTAC”, the binding signal was 0.946 RPM ratio (pull-down/input).

Regarding “GATGATTGTTCTCCCAGCTGATGAATTGAGCGTTTCGAGTAAACAAATTTTCCTAATCTTTCTGTTCAAGCGCCATCTAC”, the binding signal was 0.97 RPM ratio (pull-down/input).

On to “GATGATTGTTCTCCCAGCTGATGAATTATAAGTGTCGAGTAAACAAATTTTCCTAATCTTTCTGTTCAAGCGCCATCTAC”, for which the binding signal is 1.11 RPM ratio (pull-down/input).
